The whole screen tested about 360,000 compounds, of which about 17,000 (4.7%) were called active. Inconclusive means that the source gave no clear call. Such entries were picked first, then a sample of the others. Rule as the data show it: active = activity change below about -50%; inconclusive = mostly about -30% to -49%; inactive = weaker than that.
Test: qHTS for Inhibitors of Inflammasome Signaling: IL-1-beta AlphaLISA Primary Screen
Conditions: THP-1 LPS/ATP IL-1B secretion, 16 h; at 57.5 µM, stronger effect = lower value
From the text: Inflammasomes are a set of intracellular multi-protein complexes that enable autocatalytic activation of inflammatory caspases and drive the innate immune response to counter harmful agents. […] A qHTS assay, based on AlphaLISA technology, was developed to screen the Molecular Libraries Small Molecule Repository (MLSMR) to look for novel inflammasome inhibitors. The assay detects IL-1B using AlphaLISA anti-IL-1B acceptor and donor beads. A decreased emission signal, indicating reduced IL-1B secretion, is the desired outcome for this assay. NIH Chemical Genomics Center [NCGC] NIH Molecular Libraries Probe Centers Network [MLPCN] MLPCN Grant: MH095513 Assay Provider: Shyam Biswal Ph.D., Johns Hopkins University Immunity. 2012 Jul 27;37(1):85-95. PMID: 22819042 [2] Curr Pharm Des. 2012;18(16):2320-8. PMID: 22390695
Three microliters containing 3000 THP-1 cells were dispensed into the wells of solid, white, tissue culture treated Greiner 1,536-well plates. Library compounds and positive control, Glyburide, were pin-transferred (23 nL) by a Kalypsys pin-tool equipped with a 1,536-pin array, resulting in final compound concentration ranges of 2.5 nM to 57.5 uM. After 1 hr of cell culture incubation (37 °C, 5% CO2), 1 microL of 1 microg/mL lipopolysaccharide (250 ng/mL, final) and 5 mM ATP (1.25 mM, final) were added to stimulate the cells. After 16 hr of cell culture incubation with the compounds, 1.5 uL of anti-IL-1B acceptor beads (6 ug/mL, final) and biotinylated antibody (0.6 nM, final) were added to the plate, followed by a 1 hr incubation at ambient temperature. To detect the secreted IL-1B, 1.5 uL of AlphaLISA SA-Donor beads (24 ug/mL, final) were added, followed by 30 min of incubation in the dark at ambient temperature. The AlphaLISA signal was read by a PerkinElmer EnVision plate reader with an ultrasensitive luminescence detector and 1536 Plate HTS AlphaScreen aperture (excitation of 680nm and emission of 615nm).
% is scaled to controls: 0 for no effect and ±100 for the full control effect.

SMILES	activity change
O=C(NC12CC3CC(CC(C3)C1)C2)c1ccc(COc2ccc(Cl)cc2[N+](=O)[O-])o1	inconclusive: -44.3%
CC(OC(=O)CCCNC(=O)c1ccc(Cl)cc1)C(=O)N(C)Cc1ccccc1 (stereo not given)	inactive: 31.8%
Cc1nc2ccccc2c(=O)n1NC(=O)/C=C/c1ccc(Br)cc1	inconclusive: -34.4%
CCCCCOc1ccccc1C(=O)NCCCC(=O)O	inactive: 16.3%
COCCNC(=O)c1cc(C)ccc1C	inactive: 9.87%
Cc1cccc(C)c1NC(=O)CCN1C(=O)C2C3CCC(C3)C2C1=O (stereo not given)	inactive: -1.55%
CCCc1nc(SCC(=O)N2CCC(C)CC2)c2c(=O)n(C)c(=O)n(C)c2n1	inconclusive: -41.5%
CC(C)Cn1c(N)c(C(=O)CSc2nc3ncc(Cl)cc3[nH]2)c(=O)n(C)c1=O	inconclusive: -41.4%
O=C(COc1ccc(Cl)cc1Cl)N1CCCN(C(=O)COc2ccc(Cl)cc2Cl)CC1	active: -75.9%
COc1ccc(C2c3ccc(O)cc3Oc3ncn(CC(C)C)c(=N)c32)cc1 (stereo not given)	inconclusive: -34.4%
Cc1ccc(Nc2cc(-n3cccn3)ncn2)c(C)c1	inconclusive: -35.2%
CCn1c(CNc2cccc(Cl)c2)nnc1SCC(=O)OC1CCCCC1	inactive: 3.56%
O=C(N/N=C\c1ccc2c(c1)OCO2)c1ccco1	inactive: 14.5%
COc1cccc(-c2nnc(NC(=O)CCS(=O)(=O)c3ccc(F)cc3)o2)c1	inconclusive: -47.5%
Cc1ccccc1C(=O)/C(C#N)=N/Nc1c(C)n(C)n(-c2ccccc2)c1=O	inactive: 0%
c1ccc(CCN(Cc2ccccc2)C2CCN(C3CCCC3)CC2)cc1	inactive: -4.48%
O=C(COC(=O)c1ccccc1C(=O)c1ccc(Cl)cc1)NCC1CCCO1 (stereo not given)	inconclusive: -45%
NC(Cc1ccc(F)cc1)c1csc(Nc2ccc(C(F)(F)F)cn2)n1 (stereo not given)	active: -55.2%
Cc1ccc(S(=O)(=O)Nc2cccc(-n3cnnn3)c2)cc1	inactive: 3.52%
CCOc1ccc(-c2csc3ncn(-c4ccc(OC)cc4)c(=O)c23)cc1	inconclusive: -46.5%
CCN(CC)C(=O)C1=C(C)N(Cc2ccc(F)cc2)C(=O)C(CC(=O)NC(c2ccccc2)c2ccccc2)C1 (stereo not given)	inconclusive: -33.7%
CCOc1ccccc1NC(=S)N1CCN(c2ccccc2F)CC1	inactive: -7.69%
CCCCn1[nH]c(-c2ccccc2)cc1=O	inactive: -0.333%
COc1ccc(Cn2c(C)ccc2C)cc1	inconclusive: -31.7%
COc1ccc(/C=C/C(=O)c2ccc3c(c2)OCO3)cc1OC	inconclusive: -42.7%
c1ccc2oc(C3=NNC(=NC4CC4)SC3)cc2c1	inactive: -17.2%
CC1CCN(CCC(=O)Nc2ccc3c(c2)CCC3)CC1	inactive: 8.12%
Cc1ccc(CCNC(=O)C23CN(Cc4ccccc4)CC2C(c2cccc([N+](=O)[O-])c2)=NO3)cc1 (stereo not given)	inconclusive: -30.1%

SMILES	activity change
Nc1nonc1-c1nc2ccccc2n1CC(=O)N/N=C\c1ccc(-c2ccc(Cl)cc2)o1	inconclusive: -40.8%
COc1cc(C(=O)Nc2nnc(Cc3ccccc3)s2)cc(OC)c1OC	inactive: 10.3%
CCOC(=O)c1c(NC(=O)Cc2ccccc2)sc2c1CCN(CC)C2	inconclusive: -30.8%
Cc1cc(Cl)c(S(=O)(=O)N2CCSCC2)cc1OCC(=O)NC1CCCCC1	active: -53.6%
CC(C)(C)OC(=O)N1CCC[C@H]1c1nnc(SCc2ccc(Cl)cc2)o1	inconclusive: -45.6%
O=c1c2c3nc4ccccc4nc3n(CCN3CCOCC3)c2ncn1CCN1CCOCC1	inconclusive: -34%
O=[N+]([O-])c1ccc(-c2ccc(/C=N/O)o2)cc1	inactive: 8.76%
O=C(Nc1ccc(S(=O)(=O)N2CCCCC2)cc1)c1ccc(CN2CCOCC2)cc1	inactive: -29.6%
COc1ccccc1C(=O)Nc1cc(-c2ccc(C)cc2)no1	inconclusive: -30.3%
O=C(NCCC1CCCCN1S(=O)(=O)c1cccs1)C(=O)Nc1ccccc1 (stereo not given)	inconclusive: -42.8%
COc1ccc([C@H]2CC(=O)C=C(c3cccc(C#N)c3)C2)cc1	inconclusive: -33.6%
c1cncc(-c2nnc(C3CCCCC3)o2)c1	inactive: -0.701%
O=C(Cc1ccsc1)Nc1ccc(S(=O)(=O)C(F)F)cc1	inconclusive: -49%
CCCCN(C)CCN1C(=O)C2C(C(=O)Nc3cccc(OC)c3)C3C=CC2(O3)C1C(=O)NC1CCCCC1C (stereo not given)	inconclusive: -46.2%
CCCC1OC23CCCCC2C(C#N)(C(=N)O3)C1(C#N)C#N (stereo not given)	inconclusive: -32.9%
CCOC(=O)C1=C(COc2ccccc2)NC(=O)NC1c1ccc(Br)cc1 (stereo not given)	inconclusive: -31.6%
O=C(O)C1=CC[C@@H](c2ccc(Cl)cc2)N(S(=O)(=O)c2ccc(Cl)cc2)[C@H]1c1ccccc1	inactive: 4.55%
COc1ccc(CCNCc2c(-c3ccccc3)n(C)c3ccccc23)cc1	active: -97.2%
CC[C@]12c3[nH]c4ccc(Cl)cc4c3CCN1C(=O)[C@@H](CC(=O)NC/C=C(\C)CCC=C(C)C)C[C@@H]2C(=O)N1CCN(C(=O)C2CC2)CC1	inconclusive: -46%
C=CCOc1ccccc1CN(C(=O)CCl)c1ccc2c(c1)OCO2	active: -106%
CCCCC(CC)C(=O)NCc1ccc(F)cc1 (stereo not given)	inactive: 0%
O=[N+]([O-])c1ccc(O)c(/C=N/Nc2ccccn2)c1	active: -101%
Cc1ccc([C@H]2C[C@H](O)[C@@H](n3cc(-c4ccc(F)cc4)nn3)CN2C(=O)C2CCCCC2)cc1	inconclusive: -31.6%
COc1ccc(C(c2c(NC(=O)c3ccco3)sc(C)c2C)N2CCOCC2)cc1 (stereo not given)	inconclusive: -33.6%
Cc1cc(C)cc(NC(=O)C(c2ccccc2)N2CCCC2)c1 (stereo not given)	inconclusive: -31.2%
COCCn1c(SCC(=O)Nc2cccc(OC)c2)nnc1-c1ccc(Cl)cc1	inconclusive: -45.4%
Cc1cc(N2CCCC(C(=O)Nc3cccc4ccccc34)C2)n2ncnc2n1 (stereo not given)	inactive: -16.8%
